# Assay results taken from the supplement of paper PMC8728848.
# The list shows a part of the results.
# B1: rEtpA (Escherichia coli) (protein)
# chain: MNRIYKLKFDKRRNELVVVSEITTGVGNAKATGSVEGEKSPRRGVRAMALSLLSGMMIMAHPAMSANLPTGGQIVAGSGSIQTPSGNQMNIHQNSQNMVANWNSFDIGKGNTVQFDQPSSSAVALNRVVGGGESQIMGNLKANGQVFLVNPNGVLFGEGASVSTSGFVASTRDIKNDDFMNRRYTFSGGQKAGAAIVNQGELTTNAGGYIVLAADRVSNSGTIRTPGGKTVLAASERITLQLDNGGLMSVQVTGDVVNALVENRGLVSARDGQVYLTALGRGMLMNTVLNVSGVVEASGMHRQDGNIVLDGGDSGVVHLSGTLQADNASGQGGKVVVQGKNILLDKGSNITATGGQGGGEVYVGGGWQGKDSNIRNADKVVMQGGARIDVSATQQGNGGTAVLWSDSYTNFHGQISAKGGETGGNGGRVETSSHGNLQAFGTVSASAKKGKAGNWLLDSADITIVNGSNVSKTETTQSPPHTQFAPTAAGSAVSNTSINNRLNNGTSVTILTHRTRTGTAQGGNITVNAAINKSNGSDVNLTLQAGGNITVNNSITSTEGKLNVNLSGARTSNGSITISNNANITTNGGDITVGTTNTSNRVNISINNTTLNASNGNIQLTGTGTDSGILFAGNNRLTASNIALTGNSTSGNAINLTGTATLNATNNITLTGSSTSGNAINLKGNNTLTASNITLTGESTSGNAINLTDTTGTTTLNATNNITMQGTRVQIKHSNITAGNFALNATVAGSEISNTTLTATNNINLAAKTNSASSGVYLKDARITSTNGSITANGTATANGKATHLDGNVTLNASNGRIKLTGNGHGSASGILFAGNNRLTASNIALTGNSTSGNAINLTGTATLNATNDITLTGSSTSGNAINLTGTATLNATNNITLTGSSTSGNAINLKGNNTLTASNITLTGESTSGNAINLTDTTGTTTLNATNNITMQGTRVQIKHSNITAGNFALNATVAGSEISNTTLTATNNINLAAKTNSASSGVYLKDARITSTNGSITANGTATANGKATHLDGNVTLNASNGRIKLTGNGHGSASGILFAGNNRLTASNIALTGNSTSGNAINLTGTATLNATNDITLTGSSTSGNAINLTGTATLNATNNITLTGSSTSGNAINLKGNNTLTASNITLTGESTSGNAINLTDTTGTTTLNATNNITMQGTRVQIKHSNITAGNFALNATVAGSEISNTTLTATNNINLAAKTNSASSGVYLKDARITSTNGSITANGTATANGKATHLDGNVTLNASNGRIKLTGNGHGSASGILFAGNNRLTASNIALTGNSTSGNAINLTGTATLNATNDITLTGSSTSGNAINLTGTATLNATNNITLTGSSTSGNAINLKGNNTLTASNITLTGESTSGNAINLTDTTGTTTLNATNNITMQGTRVQIKHSNITAGNFALNATVAGSEISNTTLTATNNINLAAKTNSASSGVYLKDARITSTNGSITTNGTATANGKATHLDGNVTLNASNGRIKLTGNGHGSASGILFAGNNRLTASNIALTGNSTSGNAINLTGTATLNATNDITLTGSSTSGNAINLTGTATLNATNNITLTGSSTSGNAINLKGNNTLTASNITLTGESTSGNAINLTDTTGTTTLNATNNITMQGTRVQIKHSNITAGNFALNATVAGSEISNTTLTATNNINLAAKTNSASSGVYLKDARITSTNGSITANGTAPANDNATYLDGNVTLNASNGSIKLTGNGNGSTSGILFAGNNTLTASNITLTGNSEVYWQKLGPEQKLISEEDLNSAVDHHHHHH
# Assays:
# Test in all cases: glycan array binding signal (z-score within array); higher = stronger binding
# Details in all cases: glycan notation: IUPAC condensed, linker removed
# [1] = biological target: GlcNAc(b1-3)Gal(b1-4)GlcNAc(b1-3)Gal(b1-4)GlcNAc(b1-3)GalNAc
# How it was run: (§1)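 Glycan array data came from 3228 arrays in the Consortium for Functional Glycomics database, and only arrays with an available protein sequence were kept. Glycan names were put into IUPAC-condensed notation, and columns mapping to the same glycan were averaged. The binding signal is a within-array Z-score, averaged across arrays of one protein sequence run at different concentrations or buffers and across linkers. A negative Z-score can be read as non-binding.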
# [2] = biological target: GlcNAc(b1-3)Gal(b1-4)GlcNAc(b1-3)GalNAc
# How it was run: as §1
# [3] = biological target: GlcNAc(b1-3)Gal(b1-4)GlcNAc(b1-3)[GlcNAc(b1-3)Gal(b1-4)GlcNAc(b1-3)]GalNAc
# How it was run: as §1
# [4] = biological target: GlcNAc(b1-3)Gal(b1-4)GlcNAc(b1-6)[Gal(b1-3)]GalNAc
# How it was run: as §1
# [5] = biological target: GlcNAc(b1-3)Gal(b1-4)GlcNAc(b1-6)[GlcNAc(b1-3)Gal(b1-3)]GalNAc
# How it was run: as §1
# [6] = biological target: GlcNAc(b1-3)Gal(b1-4)GlcNAc(b1-6)[GlcNAc(b1-3)]Gal(b1-4)GlcNAc
# How it was run: as §1
# GlcNAc(b1-3)GalNAc = biological target: GlcNAc(b1-3)GalNAc
# How it was run: as §1
# GlcNAc(b1-3)Man = biological target: GlcNAc(b1-3)Man
# How it was run: as §1
# [7] = biological target: GlcNAc(b1-3)[GlcNAc(b1-4)][GlcNAc(b1-6)]GlcNAc
# How it was run: as §1
# [8] = biological target: GlcNAc(b1-3)[GlcNAc(b1-6)]Gal(b1-4)GlcNAc
# How it was run: as §1
# [9] = biological target: GlcNAc(b1-3)[GlcNAc(b1-6)]GalNAc
# How it was run: as §1
# [10] = biological target: GlcNAc(b1-4)Gal(b1-4)GlcNAc
# How it was run: as §1
# GlcNAc(b1-4)GlcNAc = biological target: GlcNAc(b1-4)GlcNAc
# How it was run: as §1
# [11] = biological target: GlcNAc(b1-4)GlcNAc(b1-4)GlcNAc
# How it was run: as §1
# [12] = biological target: GlcNAc(b1-4)GlcNAc(b1-4)GlcNAc(b1-4)GlcNAc(b1-4)GlcNAc
# How it was run: as §1
# [13] = biological target: GlcNAc(b1-4)GlcNAc(b1-4)GlcNAc(b1-4)GlcNAc(b1-4)GlcNAc(b1-4)GlcNAc
# How it was run: as §1
# [14] = biological target: GlcNAc(b1-4)[GlcNAc(b1-6)]GalNAc
# How it was run: as §1
# [15] = biological target: GlcNAc(b1-6)Gal(b1-4)GlcNAc
# How it was run: as §1
# GlcNAc(b1-6)GalNAc = biological target: GlcNAc(b1-6)GalNAc
# How it was run: as §1
# [16] = biological target: GlcNAc6S(b1-3)Gal(b1-4)GlcNAc
# How it was run: as §1
# Kdn(a2-3)Gal(b1-3)GalNAc = biological target: Kdn(a2-3)Gal(b1-3)GalNAc
# How it was run: as §1
# Kdn(a2-3)Gal(b1-3)GlcNAc = biological target: Kdn(a2-3)Gal(b1-3)GlcNAc
# How it was run: as §1
# Kdn(a2-3)Gal(b1-4)Glc = biological target: Kdn(a2-3)Gal(b1-4)Glc
# How it was run: as §1
# Kdn(a2-3)Gal(b1-4)GlcNAc = biological target: Kdn(a2-3)Gal(b1-4)GlcNAc
# How it was run: as §1
# [17] = biological target: Kdn(a2-3)Gal(b1-4)[Fuc(a1-3)]GlcNAc
# How it was run: as §1
# Kdn(a2-6)Gal(b1-4)GlcNAc = biological target: Kdn(a2-6)Gal(b1-4)GlcNAc
# How it was run: as §1
# [18] = biological target: Man(a1-2)Man(a1-2)Man(a1-3)Man
# How it was run: as §1
# [19] = biological target: Man(a1-2)Man(a1-2)Man(a1-6)[Man(a1-3)]Man
# How it was run: as §1
# Man(a1-2)Man(a1-3)Man = biological target: Man(a1-2)Man(a1-3)Man
# How it was run: as §1
# [20] = biological target: Man(a1-2)Man(a1-3)[Man(a1-2)Man(a1-6)]Man
# How it was run: as §1
# [21] = biological target: Man(a1-2)Man(a1-3)[Man(a1-2)Man(a1-6)]Man(a1-6)[Man(a1-2)Man(a1-2)Man(a1-3)]Man
# How it was run: as §1
# [22] = biological target: Man(a1-2)Man(a1-3)[Man(a1-2)Man(a1-6)]Man(a1-6)[Man(a1-2)Man(a1-2)Man(a1-3)]Man(b1-4)GlcNAc(b1-4)GlcNAc
# How it was run: as §1
# [23] = biological target: Man(a1-2)Man(a1-3)[Man(a1-6)]Man(a1-6)[Man(a1-2)Man(a1-3)]Man(b1-4)GlcNAc(b1-4)GlcNAc
# How it was run: as §1
# [24] = biological target: Man(a1-2)Man(a1-6)[Man(a1-3)]Man(a1-6)[Man(a1-2)Man(a1-2)Man(a1-3)]Man
# How it was run: as §1
# [25] = biological target: Man(a1-2)Man(a1-6)[Man(a1-3)]Man(a1-6)[Man(a1-2)Man(a1-2)Man(a1-3)]Man(b1-4)GlcNAc(b1-4)GlcNAc
# How it was run: as §1
# Man(a1-3)[Man(a1-6)]Man = biological target: Man(a1-3)[Man(a1-6)]Man
# How it was run: as §1
# [26] = biological target: Man(a1-3)[Man(a1-6)]Man(a1-6)[Man(a1-2)Man(a1-3)]Man(b1-4)GlcNAc(b1-4)GlcNAc
# How it was run: as §1
# [27] = biological target: Man(a1-3)[Man(a1-6)]Man(a1-6)[Man(a1-3)]Man
# How it was run: as §1
# [28] = biological target: Man(a1-3)[Man(a1-6)]Man(a1-6)[Man(a1-3)]Man(b1-4)GlcNAc(b1-4)GlcNAc
# How it was run: as §1
# [29] = biological target: Man(a1-3)[Man(a1-6)]Man(b1-4)GlcNAc(b1-4)GlcNAc
# How it was run: as §1
# [30] = biological target: Man(a1-3)[Man(a1-6)]Man(b1-4)GlcNAc(b1-4)[Fuc(a1-6)]GlcNAc
# How it was run: as §1
# Man(a1-6)Man = biological target: Man(a1-6)Man
# How it was run: as §1
# Man(b1-4)GlcNAc = biological target: Man(b1-4)GlcNAc
# How it was run: as §1
# MurNAc(b1-4)GlcNAc = biological target: MurNAc(b1-4)GlcNAc
# How it was run: as §1
# Neu5Ac(a2-3)Gal = biological target: Neu5Ac(a2-3)Gal
# How it was run: as §1
binder,measurement,setting,value
B1,glycan array binding signal (z-score),[1],-0.402
same,glycan array binding signal (z-score),[2],-0.351
same,glycan array binding signal (z-score),[3],-0.402
same,glycan array binding signal (z-score),[4],-0.336
same,glycan array binding signal (z-score),[5],-0.401
same,glycan array binding signal (z-score),[6],-0.396
same,glycan array binding signal (z-score),GlcNAc(b1-3)GalNAc,-0.295
same,glycan array binding signal (z-score),GlcNAc(b1-3)Man,0.178
same,glycan array binding signal (z-score),[7],-0.422
same,glycan array binding signal (z-score),[8],-0.354
same,glycan array binding signal (z-score),[9],-0.216
same,glycan array binding signal (z-score),[10],-0.316
same,glycan array binding signal (z-score),GlcNAc(b1-4)GlcNAc,-0.234
same,glycan array binding signal (z-score),[11],-0.465
same,glycan array binding signal (z-score),[12],-0.384
same,glycan array binding signal (z-score),[13],-0.413
same,glycan array binding signal (z-score),[14],-0.087
same,glycan array binding signal (z-score),[15],-0.395
same,glycan array binding signal (z-score),GlcNAc(b1-6)GalNAc,0.051
same,glycan array binding signal (z-score),[16],-0.312
same,glycan array binding signal (z-score),Kdn(a2-3)Gal(b1-3)GalNAc,-0.023
same,glycan array binding signal (z-score),Kdn(a2-3)Gal(b1-3)GlcNAc,0.581
same,glycan array binding signal (z-score),Kdn(a2-3)Gal(b1-4)Glc,0.314
same,glycan array binding signal (z-score),Kdn(a2-3)Gal(b1-4)GlcNAc,-0.304
same,glycan array binding signal (z-score),[17],-0.003
same,glycan array binding signal (z-score),Kdn(a2-6)Gal(b1-4)GlcNAc,0.133
same,glycan array binding signal (z-score),[18],-0.195
same,glycan array binding signal (z-score),[19],-0.236
same,glycan array binding signal (z-score),Man(a1-2)Man(a1-3)Man,-0.211
same,glycan array binding signal (z-score),[20],-0.349
same,glycan array binding signal (z-score),[21],-0.058
same,glycan array binding signal (z-score),[22],-0.275
same,glycan array binding signal (z-score),[23],-0.356
same,glycan array binding signal (z-score),[24],-0.308
same,glycan array binding signal (z-score),[25],0.009
same,glycan array binding signal (z-score),Man(a1-3)[Man(a1-6)]Man,-0.051
same,glycan array binding signal (z-score),[26],-0.315
same,glycan array binding signal (z-score),[27],-0.256
same,glycan array binding signal (z-score),[28],-0.391
same,glycan array binding signal (z-score),[29],-0.375
same,glycan array binding signal (z-score),[30],-0.03
same,glycan array binding signal (z-score),Man(a1-6)Man,0.387
same,glycan array binding signal (z-score),Man(b1-4)GlcNAc,-0.119
same,glycan array binding signal (z-score),MurNAc(b1-4)GlcNAc,-0.313
same,glycan array binding signal (z-score),Neu5Ac(a2-3)Gal,-0.322
